The campaign covered roughly 390,000 compounds. About 2,200 (0.56%) were called active. Inconclusive means that the source gave no clear call. Such entries were picked first, then a sample of the others. Calls follow the shape of the dose curve; as a rule, active = well fitted inhibition curve with a large enough effect; inconclusive = small, poorly fitted or top-dose-only effect; inactive = no such curve, though single readings can be large or run the other way. Where the call is inconclusive, the potency comes from a doubtful curve fit.
Target: Chromobox protein homolog 1 (Homo sapiens) (UniProt P83916)
Test: HTS for Inhibitors of HP1-beta Chromodomain Interactions with Methylated Histone Tails; also: nearly all actives have a fitted effect of over 70% in size
Conditions: AlphaScreen HP1-beta / biotin-H3K9me3 peptide binding; series mostly up to 114 µM
Method in brief: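 HP1-beta protein (50 nM final) preincubated 30 min at room temperature with biotinylated H3(1-18)K9me3 peptide (50 nM) in PBS pH 7.4, 0.01% Tween-20, then compound added for 30 min. AlphaScreen streptavidin donor/nickel chelate acceptor beads (10 ug/mL final), 30 min dark, luminescence read.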
Potency is read from the fitted curve at half-maximal effect; tags tell the direction and shape of the fitted curve.

Sequence of UniProt P83916 (P83916 whole entry, looked up): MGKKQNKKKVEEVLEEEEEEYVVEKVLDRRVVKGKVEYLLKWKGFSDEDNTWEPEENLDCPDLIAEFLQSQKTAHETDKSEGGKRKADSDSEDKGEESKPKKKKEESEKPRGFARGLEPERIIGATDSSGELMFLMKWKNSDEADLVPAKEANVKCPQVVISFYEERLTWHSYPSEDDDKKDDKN

| Structure (SMILES) | Potency |
| --- | --- |
| Nc1ccc(O)cc1C(=O)OCC(=O)c1ccc(C2CCCCC2)cc1 | inconclusive: 39.8 µM [inhibitor, partial curve, poor fit] |
| c1ccc(OCc2nn3c(Cn4nnc5ccccc54)nnc3s2)cc1 | inconclusive: 7.94 µM [inhibitor, full curve, poor fit] |
| O=C(c1cnccn1)N1CCN(C/C=C/c2ccccc2)CC1 | inactive |
| COc1cc(/C=C2/SC(=S)N(Cc3ccccc3)C2=O)cc(Cl)c1O | inconclusive: 15.8 µM [inhibitor, full curve] |
| CCOC(=O)/C(=C/c1c[nH]c2ccccc12)NC(C)=O | inconclusive: 25.1 µM [inhibitor, single point] |
| COc1ccc(N2CCN(C3CCCN(S(=O)(=O)c4ccc(C)cc4C)C3)CC2)cc1 (stereo not drawn) | inconclusive: 28.2 µM [inhibitor, partial curve] |
| Clc1cccc(OCCCn2ccnc2)c1 | inactive |
| Cc1nn(CCCNC(=O)C2CCCO2)cc1Br (stereo not drawn) | inactive |
| Cc1ccc(-n2c(C)cc(C(=S)N3CCOCC3)c2C)cc1C | inconclusive: 17.8 µM [inhibitor, full curve] |
| Cc1cc(C(=O)Nc2sccc2C(N)=O)c(C)o1 | inconclusive: 79.4 µM [inhibitor, partial curve, poor fit] |
| Clc1ccc(N2CCN(Cc3ccco3)CC2)cc1 | inconclusive: 70.8 µM [inhibitor, single point] |
| CNc1ccccc1C(C)(C)c1cc(-c2ccco2)n[nH]1 | inconclusive: 89.1 µM [inhibitor, single point] |
| COc1ccc(CNC(=O)C(C)n2c(=O)cc(C)c3c(C)nn(-c4ccccc4)c32)cc1 (stereo not drawn) | inconclusive: 89.1 µM [inhibitor, single point] |
| CCN1CCN(c2cc(C)c3cc(NC(=O)c4ccc(OC)c(OC)c4)ccc3n2)CC1 | inactive |
| CCCS(=O)(=O)N1CCN(Cc2ccccc2[N+](=O)[O-])CC1 | inconclusive: 14.1 µM [inhibitor, partial curve, poor fit] |
| Cc1ccn2cc(-c3ccc(C)c(NS(=O)(=O)c4ccc(Cl)cc4)c3)nc2c1 | inactive |
| N#CC(C#N)=Cc1c[nH]c(=O)c(C#N)c1Nc1ccccc1 | inactive |
| COc1ccc(NS(=O)(=O)c2cc(NC(=O)c3cnccn3)ccc2N2CCCC2)cc1 | inconclusive: 39.8 µM [inhibitor, single point] |
| O=C(Nc1ccc(C2=NCCN2)cc1)c1ccc(C(=O)Nc2ccc(C3=NCCN3)cc2)c([N+](=O)[O-])c1 | inconclusive: 56.2 µM [inhibitor, partial curve, poor fit] |
| CCCCN1C(=O)/C(=c2\sc3nc(=O)c(-c4ccccc4)nn3c2=O)c2ccccc21 | inconclusive: 25.1 µM [inhibitor, partial curve] |
| CC(C)Oc1ccccc1OCCN(C)C | inconclusive: 28.2 µM [inhibitor, single point] |
| CCC(=O)N1CCc2cc(S(=O)(=O)NC(C(=O)Nc3cc(OC)cc(OC)c3)C(C)C)ccc21 (stereo not drawn) | inactive |

| Structure (SMILES) | Potency |
| --- | --- |
| N#Cc1cc([N+](=O)[O-])ccc1N1CCCC1 | inconclusive: 39.8 µM [inhibitor, single point] |
| CCN(CC)CCN1c2ccccc2Sc2ccccc21 | active: 44.7 µM |
| O=C(CCNc1ccc(Cc2ccncc2)cc1)c1ccc([N+](=O)[O-])cc1 | inconclusive: 20 µM [inhibitor, full curve] |
| Cc1cc(F)ccc1NCc1cccnc1 | inconclusive: 70.8 µM [inhibitor, partial curve, poor fit] |
| CC1CCN(S(=O)(=O)c2ccccc2[N+](=O)[O-])CC1 | inconclusive: 39.8 µM [inhibitor, single point] |
| O=C(CN1CCN(c2ccc(O)cc2)CC1)NC(c1ccccc1)c1ccccc1 | inconclusive: 56.2 µM [inhibitor, single point] |
| Oc1ccccc1C(=S)N1CCN(C(=S)c2ccccc2O)CC1 | inconclusive: 10 µM [inhibitor, partial curve, poor fit] |
| COc1cc2nc(N3CCNCC3)nc(N)c2cc1OC | inconclusive: 56.2 µM [inhibitor, partial curve, poor fit] |
| CN(C)CC1CCCCC1OC(=O)c1ccc(S(=O)(=O)N(C)c2ccccc2)cc1 (stereo not drawn) | inactive |
| COC(=O)c1c(C)c2c(C)cc3ccccn3c-2c1C(=O)OC | inconclusive: 31.6 µM [inhibitor, partial curve] |
| CCOc1ccc(S(=O)(=O)N2CCC(C(=O)NC3CC3)CC2)cc1C | inconclusive: 22.4 µM [inhibitor, single point] |
| COc1ccc(C2CC(c3ccccc3)Oc3cc(C)cc(C)c32)cc1 (stereo not drawn) | inactive |
| CCOCCCNC(=S)N1CCN(CC)CC1 | inconclusive: 50.1 µM [inhibitor, partial curve] |
| COc1ccc(OC)c(CNC(=O)c2cccc(NC(=O)N3CCSc4ncccc43)c2)c1 | inactive |
| COc1ccc(OCCOCCN2CCN(C)CC2)cc1 | inconclusive: 14.1 µM [inhibitor, partial curve, poor fit] |
| C=CC[n+]1c(-c2ccc(OC)c(OC)c2)csc1NNC(=O)Nc1ccccc1 | inconclusive: 50.1 µM [inhibitor, partial curve] |
| COc1cccc(CN2CCC(C(=O)N3CCN(Cc4ccc5c(c4)OCO5)CC3)CC2)c1 | inconclusive: 25.1 µM [inhibitor, partial curve] |
| O=C(O)c1cccc(Cn2c(Cl)c(/C=N/NC(=O)c3cc4ccccc4cc3O)sc2=O)c1 | inconclusive: 56.2 µM [inhibitor, partial curve, poor fit] |
| CCN(CC)c1ccc(NC(=O)c2ccc(=O)[nH]c2)cc1S(=O)(=O)Nc1ccccc1OC | inconclusive: 5.62 µM [inhibitor, full curve] |
| Cc1ccccc1CC(=O)Nc1cccnc1 | inactive |
| CCC(c1ccc(O)c(O)c1)C(CC)c1ccc(O)c(O)c1 (stereo not drawn) | inconclusive: 56.2 µM [inhibitor, partial curve, poor fit] |
